The list shows a part of the results. At the low end of the ranking the order means little. Measured with an extract: partners may take part in the binding.
These sequences were tested against T1, HNF4alpha8 (COS-7 nuclear extract) (UniProt P41235-5) (assay: protein-binding microarray). Details: COS-7 nuclear extract on double-stranded Agilent 4x180k PBM; binding buffer, salt, pH and temperature not given; high values mean tight binding; double strand, one strand shown; sequences stand for … in …GCCTAGGGAGATTAGAGTATCGGTCGA.
T1 sequence: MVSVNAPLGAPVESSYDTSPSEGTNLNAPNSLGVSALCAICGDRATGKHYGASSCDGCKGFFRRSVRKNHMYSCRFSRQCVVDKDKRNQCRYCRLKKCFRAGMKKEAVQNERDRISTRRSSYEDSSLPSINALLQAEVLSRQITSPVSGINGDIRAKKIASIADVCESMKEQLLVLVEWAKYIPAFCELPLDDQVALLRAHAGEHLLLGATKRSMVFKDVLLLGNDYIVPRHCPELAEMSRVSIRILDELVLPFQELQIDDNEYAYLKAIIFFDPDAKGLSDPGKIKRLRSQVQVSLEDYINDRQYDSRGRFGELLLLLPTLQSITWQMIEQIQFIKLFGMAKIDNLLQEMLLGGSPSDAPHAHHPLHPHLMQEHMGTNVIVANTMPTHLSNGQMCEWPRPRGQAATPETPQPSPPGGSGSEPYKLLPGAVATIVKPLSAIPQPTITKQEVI

| Sequence | binding signal (log2 normalized intensity) |
| --- | --- |
| GCAGTGGGACAAAGGTCACAGGAAAGGGAC | 4.96 |
| ATAGTGATAAGGATCTAAGAACTAACATGG | -1.01 |
| TTCGGGTTTTCGCAGCAAGTTACACAAGTA | -1.32 |
| TAAGTATAAAGTTAAGACCTACATTAAGAC | -1.41 |
| TTACCTGAAATGAGACCAAAGTATTTAACC | -0.349 |
| GACACCAAACAGACCTCCCCCAACTTACTT | 3.06 |
| GCTGTTTCCAAATATCTGACTGTAAATTTG | 0.196 |
| GGTGACAGTATCAAAGTCCCCAGATAAGAC | 3.02 |
| TCTTGGAATGTTGAACCTTTCTTTGTCTTT | 2.31 |
| AATGGTGGGATAGGAGACATGAAGGACATA | -1.26 |
| AGGCTCTTAGCAGAAGCCCTCCTGGACATT | 2.42 |
| GAGCCCTCCCCTTGTCTGATAAGATTCAGA | 3.23 |
| TCACCACTTTTGCAATGTTTCCAAACCCCT | 2.74 |
| TATGTGGCATTTCAAAGGAGGAGGCCTAGG | -1.17 |
| AGACACAGACTCAAGTGAGGAAGGAACTGG | -1.22 |
| CTCTCCCCACCCCCAAATCCCCTTCAAGTC | 5.6 |
| CTTCAAACGGGAAGCGAGGCCTCATTGGCC | -1.28 |
| TTCAACTGATAAGAAGGGGCCTAGCTTGTA | -1.51 |
| ACACGTGGGACCATGAGTACCAGGTCAAAA | 1.69 |
| CCTTCCAAAGTCCACCTCAACCTCCCCCTG | 5.26 |
| CAGGGTGAAATTCAACAGAACTGTTTGAGG | -1.33 |
| TGTAGAATTATCCAGATCAAGGATTTTTTC | -0.774 |
| CACATCCAGATGAGAGCAGAGGCTGGGGCC | -1.25 |
| TAACTATGGTCACGCGGCCAAAATGTTCAG | -1.04 |

| Sequence | binding signal (log2 normalized intensity) |
| --- | --- |
| TGCTCATAATGCCAGGCAGGAAGGAGCCTG | -1.32 |
| TTTAGAGGATTTACTTATACAGCGTCTAAG | -1.39 |
| AGAGTCATCACAATAGGGAAACAGCGAGAG | -1.28 |
| TGCCCTCTGTCCCATGGTGTACAAGGAGTC | 1.67 |
| TATCACCTGCCAGCTGTTATGAGTCTGTTG | 1.35 |
| TAAGCACCCAGAGCCCCACCGTTGTGTAAT | 2.32 |
| CAAGACCTCTTTGCGGATAGATATGTTGAA | 1.44 |
| CACCAGGGCCTCTGAGATAAGGGTTCAAAC | 2.57 |
| AGAGACAACCAAGGTTGCAGAGTGTCCCAC | -0.934 |
| TTACAAAGTATGTTCACAAGGAATTGGAAT | 1.46 |
| GGAGAGGCAAGTATGGTAAGGTCGACCTTT | 7.03 |
| TTTCCCCCTATTTCCCTCTGTGCCCGAGCT | 4.05 |
| TTGTAGTGTCATTGTTATTTACGGTGGGCA | 2.11 |
| GAGGTTGAATTCCAAAGGTTATTTTCTTTA | 3.54 |
| AGAGGACTTCCAAAGCCCCTTTCCACTCTA | 0.748 |
| TGACTTTCTTCCTATGGGATCAAAGTGCGA | 5.69 |
| TACAGGGAGCTATTCTTTAACCAGAGTCTA | -0.822 |
| CCATCCCAGGTCCACAGTGCACATTCCAGA | 0.945 |
| CTGACAAGTATCTCGGTCAAACCTTTGACC | 6.35 |
| GCTCCCGCCTGACCTGGCCCCTGAGGGTGC | 1.61 |
| TAGCCAGACCTGTTCCTCTGCCCCTCATCG | 1.81 |
| AGATAATCCCCAGCCACGCTCCTCTTATCA | 0.137 |
| GCCTGCTCCTTGGAAGTCGCCGTGAGGTTA | 0.487 |
| TCAGATTGTAGCCTCATTTCACCTTTGGTC | 6.43 |

| Sequence | binding signal (log2 normalized intensity) |
| --- | --- |
| GACTCTGCAGCCGAACCGGCACGGTTTCGT | -1.28 |
| GTGTGGGACTTGAGGTCTTATCTTTAGGCC | 0.638 |
| TCCACTGTGCAGTGGGCCTTTAGAAGTGTA | 0.172 |
| CTCTTTGGTGCAAAGGTCAGGACAAGGCTC | 4.73 |
| CCCTGCAGTCCTCTGCTTATCTGGCCTGCT | -1.35 |
| AACTGGAAAATCAAAGACTCAGATGAGTTT | -1.32 |
| GGAATCTTGCCCTGTCGCCCAGGCTGGAAT | 1.58 |
| TTCAATGCTCCAGTAAAAGCTCTACCTGAC | -1.28 |
| AGACAGCTGCATTTGTCCGGGTATGTTCTT | 1.67 |
| GTGTTGGAGCATTAGTTGACCATTGTGTTA | 2.2 |
| ATGACCTTTGAGCAATAGGAAATGGGAGGG | 3.35 |
| GGTCTAATTCCCAAGGGTATGTTTGTGATA | 1.52 |
| GTCCCTGCTCCACGCAAACACAAAAGGATC | -1.45 |
| TCAGAGCCTGGCTGGCCTGGCAAATCTCTA | -1.16 |
| TTTTTAGTGCAAGCAAAATTCCTGGGTTGC | -1 |
| AAGCTGCAATGGCTTCACAATTCCTAGCAA | -1.25 |
| GAGAGTTAGTTCTGCAAACACCCCTCCCCC | 5.44 |
| CTGCCAGGAGGGGACTTCAAAGGCTCCCCT | -1.3 |
| GTTTGCTAATATCTGATGTTAAATCCACGA | 0.0853 |
| TTCTGGTGATCAAACAAAAGGGACAAAGGT | 1.51 |
| AACCAAGATTTACATCCTATCCTGGCTTCA | -1.1 |
| TGGACATACCTCTAATCATAAAGCTGGGAA | -0.0247 |
| TTAGATAGTAGCCCTTTGTATCTTTTAAGA | 0.942 |
| ACACACACATTGCAGTATGCCCCCCCACCC | 6.27 |

Source: PMC10726135
